{"source": "paper PMC4336329", "about": "(PLoS ONE, 2015)", "note": "The campaign covered roughly 310,000 compounds. About 2,200 (0.71%) showed an effect of 50% or more. The effect is printed as a negative number. The list shows a part of the results.", "data": [{"molecular_target": "human ether-à-go-go-related gene (hERG) potassium channel (human, UniProt Q12809)", "sequence (Q12809 whole entry, looked up)": "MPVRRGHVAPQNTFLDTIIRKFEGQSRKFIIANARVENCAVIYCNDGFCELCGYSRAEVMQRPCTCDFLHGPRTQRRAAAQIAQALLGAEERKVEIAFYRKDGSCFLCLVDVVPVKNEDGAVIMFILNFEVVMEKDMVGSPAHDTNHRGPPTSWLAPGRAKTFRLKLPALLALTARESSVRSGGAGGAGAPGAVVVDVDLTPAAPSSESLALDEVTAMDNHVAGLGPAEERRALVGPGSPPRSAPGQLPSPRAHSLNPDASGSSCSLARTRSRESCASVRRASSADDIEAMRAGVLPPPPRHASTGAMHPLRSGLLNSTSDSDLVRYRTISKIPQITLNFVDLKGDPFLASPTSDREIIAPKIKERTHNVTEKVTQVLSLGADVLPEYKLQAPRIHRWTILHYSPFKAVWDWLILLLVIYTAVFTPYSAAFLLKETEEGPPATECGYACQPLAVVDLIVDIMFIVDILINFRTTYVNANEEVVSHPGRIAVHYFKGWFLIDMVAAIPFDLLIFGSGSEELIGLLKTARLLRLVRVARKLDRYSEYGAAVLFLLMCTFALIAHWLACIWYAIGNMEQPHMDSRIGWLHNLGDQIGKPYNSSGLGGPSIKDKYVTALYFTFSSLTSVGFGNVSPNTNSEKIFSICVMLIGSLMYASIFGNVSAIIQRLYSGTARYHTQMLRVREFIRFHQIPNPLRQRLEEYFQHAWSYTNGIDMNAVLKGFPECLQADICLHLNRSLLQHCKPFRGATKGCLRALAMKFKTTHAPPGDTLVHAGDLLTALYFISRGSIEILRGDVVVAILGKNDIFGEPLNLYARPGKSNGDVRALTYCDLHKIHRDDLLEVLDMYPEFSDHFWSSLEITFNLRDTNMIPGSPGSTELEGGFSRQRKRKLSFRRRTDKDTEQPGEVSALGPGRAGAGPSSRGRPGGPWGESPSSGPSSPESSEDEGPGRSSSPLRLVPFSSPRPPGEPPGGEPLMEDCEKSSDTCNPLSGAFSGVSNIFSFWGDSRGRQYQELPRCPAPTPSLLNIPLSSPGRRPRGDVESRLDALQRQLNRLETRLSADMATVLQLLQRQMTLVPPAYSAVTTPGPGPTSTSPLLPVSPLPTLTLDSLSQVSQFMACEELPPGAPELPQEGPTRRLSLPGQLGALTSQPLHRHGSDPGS", "experiment": "primary screen, population patch clamp on CHO cells stably expressing hERG", "units": {"hERG current change (%, negative = inhibition) at 1uM": "%"}, "values": [{"smiles": "C=CCn1c(NC(=O)c2ccc(C)cc2)c(C#N)sc1=N", "hERG current change (%, negative = inhibition) at 1uM": 7.94}, {"smiles": "CCCCC(=O)NC(=S)Nc1c(C)cc(Br)cc1C", "hERG current change (%, negative = inhibition) at 1uM": -6.59}, {"smiles": "O=C(CCCC(=O)c1ccccc1)Nc1ccc(O)cc1", "hERG current change (%, negative = inhibition) at 1uM": 7.8}, {"smiles": "CCN(CC)c1ccc(NC(=O)CN2CCN(CC(=O)Nc3ccccc3F)CC2)cc1", "hERG current change (%, negative = inhibition) at 1uM": -13}, {"smiles": "CC(C)c1cc(NCCOCCO)n2c(nc3ccccc32)c1C#N", "hERG current change (%, negative = inhibition) at 1uM": -0.784}, {"smiles": "CCSc1nc(C)cc(Oc2ccc(=O)n(C)n2)n1", "hERG current change (%, negative = inhibition) at 1uM": 9.12}, {"smiles": "O=C(Cc1ccccc1)c1c[nH]c(C(=O)NCCCn2ccnc2)c1", "hERG current change (%, negative = inhibition) at 1uM": -1.44}, {"smiles": "Cc1ccc(S(=O)(=O)CC(=O)N2CCN(c3ccccc3F)CC2)cc1", "hERG current change (%, negative = inhibition) at 1uM": -5.25}, {"smiles": "CCOC(=O)N1CCN(S(=O)(=O)c2ccc(F)c(C(=O)Nc3cc(C)cc(C)c3)c2)CC1", "hERG current change (%, negative = inhibition) at 1uM": 5.99}, {"smiles": "O=C(NCC1CCCO1)c1ccc(COc2ccc(Br)cc2)cc1", "note": "(stereo not shown)", "hERG current change (%, negative = inhibition) at 1uM": -5.4}, {"smiles": "CCN(CC)CC#CC(C)(C)OC(C)=O", "hERG current change (%, negative = inhibition) at 1uM": 4.46}, {"smiles": "COc1cc2c(C(=O)N3CCN(C)CC3)c(C)n(-c3ccccc3)c2cc1Br", "hERG current change (%, negative = inhibition) at 1uM": 8.85}, {"smiles": "Cc1ccc(S(C)(=O)=O)cc1C(=O)N1CC(C(N)=O)Oc2ccccc21", "note": "(stereo not shown)", "hERG current change (%, negative = inhibition) at 1uM": 14}, {"smiles": "Cc1nn(CC(=O)c2ccc(Br)s2)c(C)c1[N+](=O)[O-]", "hERG current change (%, negative = inhibition) at 1uM": 6.75}, {"smiles": "COc1ccc(OC)c(C2C3CN(C(C)C)CC=C3C(C#N)=C(N)C2(C#N)C#N)c1", "note": "(stereo not shown)", "hERG current change (%, negative = inhibition) at 1uM": 5.92}, {"smiles": "COc1ccc(OC)c(C2=Nn3c(nnc3-c3cc(OC)c(OC)c(OC)c3)SC2)c1", "hERG current change (%, negative = inhibition) at 1uM": -3.48}, {"smiles": "CC(C)CNC(=O)NC(=O)COc1ncnc2sccc12", "hERG current change (%, negative = inhibition) at 1uM": 11}, {"smiles": "COc1ccc(C2NC(=O)Cc3cc(OC)c(OC)cc32)cc1OC", "note": "(stereo not shown)", "hERG current change (%, negative = inhibition) at 1uM": 5.57}, {"smiles": "CC(C)C(C(=O)NC1CCCC1)N(CC1CCCO1)C(=O)CNS(=O)(=O)c1ccccc1", "note": "(stereo not shown)", "hERG current change (%, negative = inhibition) at 1uM": 11.4}, {"smiles": "Cc1ncc(CN2CCCC(C(=O)Nc3ccc(-c4ccco4)cc3)C2)cn1", "note": "(stereo not shown)", "hERG current change (%, negative = inhibition) at 1uM": 2.36}, {"smiles": "O=C(NCc1ccccc1)N1CCOCC1", "hERG current change (%, negative = inhibition) at 1uM": -5.83}, {"smiles": "Cc1nnc(NC(=O)CCn2c(=O)oc3ccc(Cl)cc32)s1", "hERG current change (%, negative = inhibition) at 1uM": 13.6}, {"smiles": "c1csc(Cn2nnnc2CN2CCN(c3nc4ccccc4s3)CC2)c1", "hERG current change (%, negative = inhibition) at 1uM": -7.1}, {"smiles": "O=C(CN1CCN(S(=O)(=O)c2ccccc2)CC1)N1CCc2ccccc21", "hERG current change (%, negative = inhibition) at 1uM": 14.6}, {"smiles": "CCc1cc2c3c(c1)C(C)CC(C)(C)N3C(=O)C2=O", "note": "(stereo not shown)", "hERG current change (%, negative = inhibition) at 1uM": -1.52}]}]}
